# Laboratory results as given in PubChem BioAssay (Tox21).
# Where “and” joins values, the source holds several entries; their conditions need not be identical. Equal entries are not always repeated. Inconclusive means that the source gave no clear call. Such entries were picked first, then a sample of the others. For some of these results: Potencies of inconclusive entries are doubtful fits and often do not repeat. More than one record can exist for a structure, and the calls need not agree. Calls of active or inactive are those of the source. Unless noted, calls come from the whole dose curve; as a rule, active = well fitted curve in the direction sought with a large enough effect in the repeat runs; inconclusive = weak or mixed curves; inactive = no such curve, though single readings can be large; an effect the other way counts as inactive or inconclusive.
# Assays:
# [1] = target: Peroxisome proliferator-activated receptor gamma (Homo sapiens) (UniProt P37231); assay: qHTS assay to identify small molecule agonists of the peroxisome proliferator-activated receptor gamma (PPARg) signaling pathway (AID 743094; active = well fitted activation curve with a large enough effect in the signal ratio in the repeat runs, not every such curve was filed as active; inconclusive = weak or mixed curves, or effect the other way; inactive = no such curve, though single readings can be large or run the other way; the % refers to the signal ratio; for activation: % is set by controls: 0 for no effect and ±100 for the full control effect); settings: HEK293H PPARg-UAS-bla, beta-lactamase FRET ratio, 17 h; activation: at 57 µM (top of the series) unless noted
# Outline: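 Quantitative HTS agonist mode: stable HEK293H line with UAS-beta-lactamase reporter under PPARg control, 17 h compound exposure at 37C, fluorescence after 1 h FRET substrate loading at room temperature.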
# [2] = qHTS assay to identify small molecule antagonists of the peroxisome proliferator-activated receptor gamma (PPARg) signaling pathway - cell viability counter screen (AID 743194); settings: PPARg-bla HEK293H viability, CellTiter-Glo luminescence, 17 h, co-treated with 50 nM rosiglitazone; activity change, negative = cytotoxicity: at 62.6 µM (top of the series) unless noted; note: nearly all actives have a fitted effect of over 55% in size
# Outline: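 Viability was measured as CellTiter-Glo luminescence in GeneBLAzer PPARg UAS-bla HEK293H cells. These cells had been exposed 17 h at 37 C to compounds together with rosiglitazone at 50 nM final, with the beta-lactamase readout taken in the same wells.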
# [3] = qHTS assay for small molecule activators of the heat shock response signaling pathway (AID 743210; active = well fitted activation curve with a large enough effect in the signal ratio in the repeat runs, with a control signal flat, not every such curve was filed as active; inconclusive = weak or mixed curves; the % refers to the signal ratio;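 for activation: HeLa cells with beta-lactamase reporter driven by heat shock elements; % is set by controls: 0 for no effect and ±100 for the full control effect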); settings: HeLa HSE-bla reporter, beta-lactamase ratio, 5 h; activation: at 62.6 µM (top of the series)
# Outline: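 HeLa HSE-bla cells, overnight plating; cpd in DMSO 5 h, 37 C; LiveBLAzer B/G FRET substrate 2.5 h RT; fluorescence intensity read.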
# [4] = target: Peroxisome proliferator-activated receptor delta (Homo sapiens) (UniProt Q03181); assay: qHTS assay to identify small molecule agonists of the peroxisome proliferator-activated receptor delta (PPARd) signaling pathway (AID 743212; calls by dose curve; for activation: % is set by controls: 0 for no effect and ±100 for the full control effect); settings: HEK293H PPARd-UAS-bla, beta-lactamase FRET ratio, 17 h
# Outline: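 HEK293H PPARd-bla cells; 5 h preincubation 37 C/5% CO2; compound (DMSO) 37 C; LiveBLAzer B/G FRET substrate 2 h RT; fluorescence intensity.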
# [5] = target: Peroxisome proliferator-activated receptor delta (Homo sapiens) (UniProt Q03181); assay: qHTS assay to identify small molecule antagonists of the peroxisome proliferator-activated receptor delta (PPARd) signaling pathway (AID 743215; active = well fitted inhibition curve with a large enough effect in the signal ratio in the repeat runs, not every such curve was filed as active; inconclusive = weak or mixed curves, or effect the other way; inactive = no such curve, though single readings can be large or run the other way; the % refers to the signal ratio;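 note: cells stimulated with agonist L165041 at 300 nM final during compound exposure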; for ratio activity, negative = inhibition: % is set by controls: 0 for no effect and ±100 for the full control effect); settings: HEK293H PPARd-UAS-bla, beta-lactamase FRET ratio, antagonist, 17 h; ratio activity, negative = inhibition: at 62 µM (top of the series) unless noted
# Outline: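 Inhibition of L165041-driven (300 nM final) PPARd signaling is scored in HEK293H UAS-bla cells. Exposure lasts 17 h at 37 C; beta-lactamase activity is then read by FRET substrate fluorescence after 2 h at room temperature.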
# [6] = qHTS assay to identify small molecule agonists of the farnesoid-X-receptor (FXR) signaling pathway - cell viability counter screen (AID 743218); settings: FXR-bla HEK293T viability, CellTiter-Glo luminescence, 16 h; viability change, negative = cytotoxic: at 62.6 µM (top of the series) unless noted; note: nearly all actives have a fitted effect of over 45% in size
# Outline: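 Cytotoxicity counter-screen run in parallel, same wells: FXR-UAS-bla HEK 293T cells dosed 16 h at 37 C, viability read by CellTiter-Glo luminescence after 30 min at room temperature.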
# [7] = target: Vitamin D3 receptor (Homo sapiens) (UniProt P11473); assay: qHTS assay to identify small molecule agonists of the vitamin D receptor (VDR) signaling pathway (AID 743222; calls by dose curve); settings: HEK293T VDR-UAS-bla, beta-lactamase FRET ratio, 16 h; activation: at 63.5 µM (top of the series) unless noted
# Outline: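 Quantitative HTS agonist-mode screen: compounds in DMSO were pin-transferred onto VDR-bla cells and incubated 16 h at 37C, 5% CO2. Reporter activity was detected with LiveBLAzer B/G FRET substrate after 2 h at room temperature.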
# [8] = target: Vitamin D3 receptor (Homo sapiens) (UniProt P11473); assay: qHTS assay to identify small molecule antagonists of the vitamin D receptor (VDR) signaling pathway (AID 743223; active = well fitted inhibition curve with a large enough effect in the signal ratio in the repeat runs, not every such curve was filed as active; inconclusive = weak or mixed curves, or effect the other way; inactive = no such curve, though single readings can be large or run the other way; the % refers to the signal ratio); settings: VDR-UAS-bla HEK293T, beta-lactamase FRET ratio, 16 h; activity change, negative = inhibition: at 61 µM (top of the series) unless noted
# Outline: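 VDR-bla cells were treated with compound plus 3 nM final 1alpha,25-dihydroxyvitamin D3 for 16 h at 37C. Beta-lactamase reporter read by B/G FRET substrate fluorescence after 2 h at room temperature. qHTS format.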
# [9] = target: Peroxisome proliferator-activated receptor gamma (Homo sapiens) (UniProt P37231); assay: qHTS assay to identify small molecule antagonists of the peroxisome proliferator-activated receptor gamma (PPARg) signaling pathway (AID 743191; calls by dose curve; note: nearly all actives have a fitted effect of over 30% in size); settings: HEK293H PPARg-UAS-bla, beta-lactamase ratio, antagonist, 17 h
# Outline: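 Beta-lactamase reporter under UAS control in HEK293H PPARg-bla cells; compound treatment 17 h at 37C. Read-out: fluorescence intensity after 1 h room-temperature incubation with LiveBLAzer B/G FRET substrate.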
# [10] = qHTS assay for small molecule agonists of the antioxidant response element (ARE) signaling pathway (AID 743202; active = well fitted activation curve with a large enough effect in the signal ratio in the repeat runs, not every such curve was filed as active; inconclusive = weak or mixed curves, or effect the other way; inactive = no such curve, though single readings can be large or run the other way; the % refers to the signal ratio); settings: HepG2 ARE-bla reporter, beta-lactamase FRET, 16 h; activation: at 73.3 µM (top of the series) unless noted
# Outline: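 Quantitative high-throughput format in HepG2 cells bearing an integrated ARE-beta-lactamase reporter. Compound exposure lasted 16 h at 37 C, and fluorescence was read 2 h after adding LiveBLAzer B/G substrate at room temperature.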
# [11] = qHTS assay to identify small molecule antagonists of the vitamin D receptor (VDR) signaling pathway - cell viability counter screen (AID 743225); settings: VDR-bla HEK293T viability, CellTiter-Glo luminescence, 16 h; viability change, negative = cytotoxic: at 61 µM (top of the series) unless noted; note: nearly all actives have a fitted effect of over 50% in size
# Outline: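 VDR-UAS-bla HEK 293T cells were plated and incubated 4 h at 37C, then dosed with compound plus 3 nM (final) 1-alpha,25-dihydroxyvitamin D3 for 16 h. After the 2 h beta-lactamase read, viability in the same wells was read as CellTiter-Glo luminescence after 30 min at room temperature.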
# [12] = target: Bile acid receptor (Homo sapiens) (UniProt Q96RI1); assay: qHTS assay to identify small molecule agonists of the farnesoid-X-receptor (FXR) signaling pathway (AID 743220; active = well fitted activation curve with a large enough effect in the signal ratio in the repeat runs, not every such curve was filed as active; inconclusive = weak or mixed curves, or effect the other way; the % refers to the signal ratio); settings: HEK293T FXR-UAS-bla, beta-lactamase FRET ratio, 16 h; activation: at 62.6 µM (top of the series) unless noted
# Outline: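 Beta-lactamase reporter under UAS control in GeneBLAzer FXR HEK 293T cells (5000/well) measured with LiveBLAzer FRET substrate after 2 h at room temperature. Compound exposure lasted 16 h at 37C.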
# [13] = qHTS assay to identify small molecule agonists of the vitamin D receptor (VDR) signaling pathway - cell viability counter screen (AID 743224); settings: VDR-bla HEK293T viability, CellTiter-Glo luminescence, 16 h; activity change, negative = cytotoxicity: at 62.6 µM (top of the series) unless noted; note: nearly all actives have a fitted effect of over 50% in size
# Outline: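 Viability is measured in the same wells as the VDR-bla reporter assay: after 16 h compound treatment and 2 h substrate loading, CellTiter-Glo is added and luminescence read 30 min later.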
# [14] = qHTS assay for small molecule activators of the heat shock response signaling pathway - cell viability counter screen (AID 743209); settings: HSE-bla HeLa viability, CellTiter-Glo luminescence, 5 h; activity change, negative = cytotoxicity: at 62.6 µM (top of the series) unless noted; note: nearly all actives have a fitted effect of over 50% in size
# Outline: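 First, HSE-bla HeLa cells were seeded at 1500 cells/well and kept overnight at 37 C. Next, compounds were pinned in and incubated 5 h. After the FRET substrate step, CellTiter-Glo was added and luminescence read 30 min later.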
# [15] = qHTS assay to identify small molecule agonists of the peroxisome proliferator-activated receptor delta (PPARd) signaling pathway - cell viability counter screen (AID 743211); settings: PPARd-bla HEK293H viability, CellTiter-Glo luminescence, 17 h; activity change, negative = cytotoxicity: at 62.6 µM (top of the series); note: nearly all actives have a fitted effect of over 55% in size
# Outline: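 PPARd-bla HEK293H cells (3000/well) were pre-incubated 5 h at 37 C, then exposed to compound for 17 h at 37 C. After 2 h with LiveBLAzer substrate, CellTiter-Glo was added to the same wells; luminescence read after 30 min at room temperature.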
# [16] = target: Bile acid receptor (Homo sapiens) (UniProt Q96RI1); assay: qHTS assay to identify small molecule antagonists of the farnesoid-X-receptor (FXR) signaling pathway (AID 743217; active = well fitted inhibition curve with a large enough effect in the signal ratio in the repeat runs, not every such curve was filed as active; inconclusive = weak or mixed curves, or effect the other way; inactive = no such curve, though single readings can be large or run the other way; the % refers to the signal ratio); settings: HEK293T FXR-UAS-bla, beta-lactamase ratio, CDCA-stimulated, 16 h; activity change, negative = inhibition: at 62.6 µM (top of the series) unless noted
# Outline: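 Antagonist mode against 50 uM (final) chenodeoxycholic acid stimulation in FXR-bla HEK 293T cells, 16 h at 37 °C. Inhibition detected as reduced beta-lactamase activity via LiveBLAzer B/G FRET fluorescence after 2 h at room temperature.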
# [17] = qHTS assay to identify small molecule antagonists of the peroxisome proliferator-activated receptor delta (PPARd) signaling pathway - cell viability counter screen (AID 743213); settings: PPARd-bla HEK293H viability, CellTiter-Glo luminescence, 17 h; viability change, negative = cytotoxic: at 62 µM (top of the series) unless noted; note: nearly all actives have a fitted effect of over 50% in size
# Outline: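 PPARd-bla HEK293H cells (3000/well) got compound plus 300 nM L165041 agonist for 17 h at 37 C. Viability in the same wells came from CellTiter-Glo luminescence after 30 min at room temperature.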
# [18] = activation: at 62.6 µM (top of the series) unless noted
# [19] = ratio activity, negative = inhibition: at 62.6 µM (top of the series) unless noted
# Potency is the fitted concentration of half-maximal effect; tags give direction and shape of the fitted curve or compound fluorescence and quenching.
# Chain of UniProt P11473 (P11473 whole entry, looked up): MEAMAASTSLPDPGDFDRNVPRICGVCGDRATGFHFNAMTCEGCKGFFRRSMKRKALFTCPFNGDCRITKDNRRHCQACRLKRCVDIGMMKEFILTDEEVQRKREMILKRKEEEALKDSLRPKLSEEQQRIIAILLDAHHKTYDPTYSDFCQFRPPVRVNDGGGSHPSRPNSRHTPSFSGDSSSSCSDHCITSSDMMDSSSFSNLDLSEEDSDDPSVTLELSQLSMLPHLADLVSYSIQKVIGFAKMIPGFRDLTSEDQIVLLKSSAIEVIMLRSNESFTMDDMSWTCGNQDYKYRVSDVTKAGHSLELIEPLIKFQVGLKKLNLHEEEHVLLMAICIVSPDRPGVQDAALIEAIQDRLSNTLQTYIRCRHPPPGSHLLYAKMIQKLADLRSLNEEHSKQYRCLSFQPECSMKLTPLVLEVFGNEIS
# Chain of UniProt Q03181 (Q03181 whole entry, looked up): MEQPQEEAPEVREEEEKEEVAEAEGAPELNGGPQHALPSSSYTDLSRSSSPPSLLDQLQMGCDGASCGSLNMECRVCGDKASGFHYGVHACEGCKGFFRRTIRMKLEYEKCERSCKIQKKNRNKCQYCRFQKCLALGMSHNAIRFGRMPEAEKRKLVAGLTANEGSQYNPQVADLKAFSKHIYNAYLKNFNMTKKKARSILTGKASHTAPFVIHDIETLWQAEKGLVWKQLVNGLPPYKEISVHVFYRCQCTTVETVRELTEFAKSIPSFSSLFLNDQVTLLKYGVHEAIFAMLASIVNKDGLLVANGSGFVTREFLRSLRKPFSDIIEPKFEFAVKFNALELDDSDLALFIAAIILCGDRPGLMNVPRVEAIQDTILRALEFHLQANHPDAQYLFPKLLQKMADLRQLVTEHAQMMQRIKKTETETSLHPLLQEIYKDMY
# Chain of UniProt Q96RI1 (Q96RI1 whole entry, looked up): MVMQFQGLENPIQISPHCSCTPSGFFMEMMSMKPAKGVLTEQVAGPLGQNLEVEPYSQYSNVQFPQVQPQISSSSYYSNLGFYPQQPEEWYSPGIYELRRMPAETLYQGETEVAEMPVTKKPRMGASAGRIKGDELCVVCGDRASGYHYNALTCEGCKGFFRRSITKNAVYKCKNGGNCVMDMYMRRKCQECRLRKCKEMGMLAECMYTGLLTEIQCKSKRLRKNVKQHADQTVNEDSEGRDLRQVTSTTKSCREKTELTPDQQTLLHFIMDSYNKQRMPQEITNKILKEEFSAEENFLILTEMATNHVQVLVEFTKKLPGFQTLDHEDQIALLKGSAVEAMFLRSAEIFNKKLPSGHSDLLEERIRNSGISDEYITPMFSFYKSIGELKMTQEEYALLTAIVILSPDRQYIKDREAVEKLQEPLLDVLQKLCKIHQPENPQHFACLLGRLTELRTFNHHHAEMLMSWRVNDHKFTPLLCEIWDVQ
# Chain of UniProt P37231 (P37231 whole entry, looked up): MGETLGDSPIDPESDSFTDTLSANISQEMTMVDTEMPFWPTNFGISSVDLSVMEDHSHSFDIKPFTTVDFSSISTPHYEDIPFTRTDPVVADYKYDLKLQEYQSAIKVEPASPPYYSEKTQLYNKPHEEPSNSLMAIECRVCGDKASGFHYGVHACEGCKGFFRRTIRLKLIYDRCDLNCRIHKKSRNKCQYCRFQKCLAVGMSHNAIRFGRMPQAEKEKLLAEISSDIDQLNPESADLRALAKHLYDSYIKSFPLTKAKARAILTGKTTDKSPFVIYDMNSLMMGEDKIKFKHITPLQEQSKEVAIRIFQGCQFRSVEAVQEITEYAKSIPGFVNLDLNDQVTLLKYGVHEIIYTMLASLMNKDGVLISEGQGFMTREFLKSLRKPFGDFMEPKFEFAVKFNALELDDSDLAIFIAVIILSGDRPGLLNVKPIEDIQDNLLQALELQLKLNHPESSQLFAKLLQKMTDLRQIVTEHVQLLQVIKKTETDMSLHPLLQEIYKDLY
structure (smiles),measurement,setting,value
CCC(Cc1c(I)cc(I)c(N)c1I)C(=O)O (centres undefined),activation,[1],inconclusive: -18.1%
same,Potency,[2],"inconclusive: 1.68 µM [cytotoxic, full curve, poor fit]"
same,Potency,[3],inactive
same,activation,[4]; [18],inconclusive: 0.68% and inconclusive: -4.11%
same,"ratio activity, negative = inhibition",[5],inconclusive: 17.8%
same,"viability change, negative = cytotoxic",[6],inconclusive: 45.4%
same,Potency,[7],"inconclusive: 11.9 µM [rising, full curve, poor fit]"
same,Potency,[8],"inconclusive: 9.47 µM [activator, partial curve, poor fit]"
same,"activity change, negative = inhibition",[8],inconclusive: 21.2%
COc1ccc2nc(S(=O)Cc3ncc(C)c(OC)c3C)[nH]c2c1 (centres undefined),Potency,[1],inconclusive: 60.9 µM [single point]
same,Potency,[9]; [19],inconclusive: 48.4 µM and inactive
same,Potency,[10],active: 17 µM and active: 16.8 µM
same,Potency,[3],active: 30.5 µM
same,activation,[4]; [18],inconclusive: 0.524%
same,"viability change, negative = cytotoxic",[6],inconclusive: 30.7%
same,activation,[7],inconclusive: -20.4%
same,Potency,[8],inactive
same,Potency,[11],"inconclusive: 0.107 µM [cytotoxic, single point]"
Cc1nc(-c2ccc3c(c2)CCN(CCC2CCC(NC(=O)/C=C/c4ccc(F)cc4)CC2)CC3)no1 (centres undefined),Potency,[1],active: 24.6 µM
same,Potency,[9]; [19],"inconclusive: 15.5 µM [activator, partial curve]"
same,Potency,[10],"inconclusive: 27.4 µM [rising, partial curve]"
same,Potency,[3],inconclusive: 10.6 µM
same,Potency,[4]; [18],active: 21.9 µM
same,Potency,[5],"inconclusive: 17.4 µM [activator, partial curve, poor fit]"
same,Potency,[6],inactive
same,Potency,[12],"inconclusive: 15.5 µM [activator, partial curve]"
same,Potency,[7],"inconclusive: 24.6 µM [activator, single point]"
same,Potency,[8],"inconclusive: 9.79 µM [activator, full curve]"
same,Potency,[13],"inconclusive: 21.9 µM [cytotoxic, partial curve]"
O=c1n(CCO)c(=O)n(CCO)c(=O)n1CCO,"ratio activity, negative = inhibition",[9]; at 62.6 µM (top of the series),inactive: 18.1%
same,"ratio activity, negative = inhibition",[9]; [19],inconclusive: 22.9% [at 81.1 µM]
same,Potency,[10],inconclusive: 77 µM
same,activation,[10],inconclusive: -6.83% [at 94.8 µM]
same,Potency,[14],"inactive and inconclusive: 24.5 µM [cytotoxic, full curve]"
same,Potency,[3],inconclusive: 37.4 µM
same,Potency,[15],"inconclusive: 54.9 µM [cytotoxic, single point]"
same,Potency,[5],"inconclusive: 43.6 µM [rising, partial curve, poor fit]"
same,Potency,[13],inconclusive: 54.9 µM [cytotoxic]
O=C(CC(C(=O)OC1CCCCC1)S(=O)(=O)O)OC1CCCCC1 (centres undefined),Potency,[9]; [19],"inconclusive: 54.2 µM [rising, single point]"
same,"ratio activity, negative = inhibition",[9]; [19],inconclusive: 5.13% [at 81.1 µM]
same,activation,[10],inconclusive: -3.6%
same,Potency,[4]; [18],inactive
same,"activity change, negative = inhibition",[16],inconclusive: -3.83%
O=Nc1ccc(Nc2ccccc2)cc1,Potency,[1],"inconclusive: 62 µM [fluorescent, single point] and active: 15.5 µM"
same,Potency,[2],active: 19.6 µM and active: 43.6 µM
same,Potency,[15],active: 43.9 µM and active: 38.9 µM
same,activation,[4]; at 62.6 µM (top of the series),inconclusive: -9.89%
same,activation,[4]; at 81.1 µM (top of the series),inconclusive: -16.1%
same,Potency,[17],inconclusive: 55.3 µM [cytotoxic]
same,Potency,[5],inconclusive: 55.3 µM and active: 30.9 µM
same,Potency,[16],inconclusive: 49.2 µM and inconclusive: 54.9 µM
same,Potency,[6],active: 55.3 µM and active: 54.9 µM
same,Potency,[12],"inconclusive: 62 µM [fluorescent, partial curve, poor fit] and inconclusive: 17.4 µM [activator, partial curve]"
same,Potency,[8],"inconclusive: 43.9 µM [rising, partial curve] and inconclusive: 43.6 µM [rising, partial curve]"
same,Potency,[13],active: 17.5 µM
OC1C(O)C(O)C(O)C(O)C1O (centres undefined),Potency,[1],inactive
same,Potency,[10],inactive
same,Potency,[11],inactive
Clc1ccc(C(c2ccccc2Cl)C(Cl)Cl)cc1 (centres undefined),Potency,[1],inactive
same,Potency,[2],"active: 54.9 µM and inconclusive: 4.2 nM [cytotoxic, full curve, poor fit]"
same,Potency,[10],"inconclusive: 15.4 µM [falling, partial curve, poor fit] and inconclusive: 29.8 µM [rising, partial curve, poor fit]"
same,Potency,[15],"inconclusive: 33.5 µM [cytotoxic, single point]"
same,Potency,[13],active: 49 µM
same,Potency,[11],"inconclusive: 54.9 µM [cytotoxic, single point]"
